We go through 31 molecules from PubChem BioAssay AID488969 (Vanderbilt High Throughput Screening Facility, 2010).

In all, about 110,000 compounds were measured (“z-score”: median about -0.1, highest 2% from about 2 on). This is one part of the list.

In the assay the target is Metabotropic glutamate receptor 8 (Rattus norvegicus) (UniProt P70579). The assay can be described thus: rat mGluR8 modulators via GIRK flux, primary screen, cell-based, thallium flux, HTS (AID 488969). The settings on record: HEK293 rat mGluR8, GIRK (G protein-gated inwardly rectifying potassium channel) thallium flux, FluoZin2; at 10 µM; stronger effect = higher value; submaximal glutamate (EC20) added with thallium.
Sequence of UniProt P70579 (P70579 whole entry, looked up): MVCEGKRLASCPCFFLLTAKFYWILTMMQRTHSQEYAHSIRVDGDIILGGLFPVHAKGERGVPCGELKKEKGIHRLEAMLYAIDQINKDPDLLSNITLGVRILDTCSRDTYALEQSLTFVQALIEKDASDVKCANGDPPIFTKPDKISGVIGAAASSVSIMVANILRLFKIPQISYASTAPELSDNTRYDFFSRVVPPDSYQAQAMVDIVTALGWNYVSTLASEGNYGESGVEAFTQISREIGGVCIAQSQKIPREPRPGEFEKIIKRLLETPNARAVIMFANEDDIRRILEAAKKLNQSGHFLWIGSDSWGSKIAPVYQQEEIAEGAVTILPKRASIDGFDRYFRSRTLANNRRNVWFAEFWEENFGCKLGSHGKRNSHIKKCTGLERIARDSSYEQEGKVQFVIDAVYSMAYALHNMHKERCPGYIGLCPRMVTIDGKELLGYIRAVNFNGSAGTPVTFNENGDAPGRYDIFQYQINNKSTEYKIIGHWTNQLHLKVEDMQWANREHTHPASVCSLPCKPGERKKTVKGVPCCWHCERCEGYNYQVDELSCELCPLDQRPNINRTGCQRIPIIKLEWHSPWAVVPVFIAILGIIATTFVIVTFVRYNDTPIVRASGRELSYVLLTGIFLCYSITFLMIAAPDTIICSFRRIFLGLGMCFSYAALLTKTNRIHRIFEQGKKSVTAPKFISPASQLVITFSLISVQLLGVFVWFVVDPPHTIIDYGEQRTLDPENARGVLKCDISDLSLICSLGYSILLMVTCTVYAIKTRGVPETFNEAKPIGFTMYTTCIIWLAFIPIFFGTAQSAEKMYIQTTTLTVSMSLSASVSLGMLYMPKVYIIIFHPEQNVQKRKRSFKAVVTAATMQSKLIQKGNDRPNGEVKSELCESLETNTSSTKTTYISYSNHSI
Regarding `COc1ccc(CNC(C)(C)C)cc1Cl`, the z-score was -0.08.
Then `COc1ccc(CCNC(=O)c2ccc(CN3CCOCC3)cc2)cc1`, with -0.861; and `O=C(CCN1CCC(c2ccccc2)C1)c1ccccc1` (stereo unspecified), with -0.0799.
In the case of `COc1ccccc1C(CCNS(=O)(=O)c1ccc(C)cc1)c1ccco1` (stereo unspecified), the z-score is -0.194.
The molecule `CC(C)(C)c1cc(S(=O)(=O)CCc2ccccn2)cc(C(C)(C)C)c1F` showed a z-score of -0.107.
Then `On1onc2c3cc(-c4ccccc4)nc3ccc21`, with -0.0816; and `CC1=C(C(=O)NCc2ccccc2)C(c2cccnc2)n2ncnc2N1` (stereo unspecified), with 0.172.
Then `Cc1cc(C(=O)NCc2ccc3c(c2)OCO3)n(-c2ccccc2)n1`, with -1.31; and `Cc1ccc(C(=O)NC(=S)Nc2ccc(Oc3ccc(Cl)cc3)cc2)cc1`, with 0.157; and `COc1ccccc1N1C(=O)CCC1(C#N)c1ccccc1` (stereo unspecified), with -0.89.
The molecule `N#Cc1cc([N+](=O)[O-])cnc1Nc1ccccc1` displayed a z-score of -0.521.
Molecule `Cc1cnc(C(=O)Nc2cccc(S(=O)(=O)N(C)C)c2)cn1` returned a z-score of -0.268.
In the case of `Cc1cc(C=O)c(C)n1-c1cc(C(F)(F)F)ccc1N1CCOCC1`, the z-score was 0.457.
The result for `O=C(Cn1nc(C(F)(F)F)c2c1CCCC2)NCc1ccco1` reads 0.308; that for `Cc1ccc(-c2nc3ncccn3c2Nc2ccc3c(c2)OCO3)o1`, -0.257; that for `O=C(O)c1c2c(nc3ccc(S(=O)(=O)N4CCC(C(=O)N5CCCCC5)CC4)cc13)CCCC2`, 0.292.
Turning to `CCOC(=O)Cn1c(CN2CCOCC2)nc2c1c(=O)[nH]c(=O)n2C`, the z-score was 0.345.
For the molecule `CN(C)c1c([N+](=O)[O-])cc2[nH]c(=O)[nH]c2c1[N+](=O)[O-]`, the z-score is -1.08.
`O=C(OCn1ncc(Cl)c(Cl)c1=O)c1cccc(C(F)(F)F)c1` gave a z-score of -1.
The result for `OC(COCc1ccccc1)Cn1cnc2ccccc21` (stereo unspecified) reads -0.369; that for `Cc1ccc(C(=O)c2ccccc2C(=O)OCC(=O)NCCc2ccccc2)cc1`, -0.0141; that for `Cc1cc(C(=O)NCC(c2ccco2)N(C)C)no1` (stereo unspecified), -0.388.
The result for `O=C(c1ccc(COc2ccc(F)cc2)o1)n1cc(Br)cn1` reads -1.23; that for `COc1ccc(/C=N/NC(=O)CCCOc2ccc(Cl)cc2Cl)cc1[N+](=O)[O-]`, 0.39.
Molecule `COc1ccc(CCn2c(N)c(C(=O)NCc3ccco3)c3nc4ccccc4nc32)cc1OC` had a z-score of 0.167.
For `Cc1ccc(C)c(NS(=O)(=O)c2ccc(NC(=O)CSc3ccc(Cl)cc3)cc2)c1`, the z-score is -1.42.
The result for `O=C1c2ccccc2C(=O)N1CNc1ccccc1` reads 0.141.
Molecule `CC1(C)C2(C#N)C(N)=NC3(OCCO3)C12C#N` (stereo unspecified) gave a z-score of -0.373.
The result for `CCN1CCN(CCC(=O)Nc2ccc3c(c2)OCO3)CC1` reads 0.949; that for `CCCCOc1ccc(C2CC(=O)N(C)C2=O)cc1` (stereo unspecified), -0.376; that for `CCOC(=O)c1c(C)[nH]c(C(=O)N/N=C\c2ccccc2O)c1C`, 0.156.
